Data reported in paper PMC4381594.
These are yes or no findings as the source states them, for the method shown. In cells and extracts the contact can be indirect. Some binding calls cover weakened binding; strength is not graded here. Tags and fused reporters may be left off the sequences shown.

B1: GFP-tagged PCAF truncation 1-700 a.a. (domain or fragment, UniProt Q92831 1-700)
chain: MSEAGGAGPGGCGAGAGAGAGPGALPPQPAALPPAPPQGSPCAAAAGGSGACGPATAVAAAGTAEGPGGGGSARIAVKKAQLRSAPRAKKLEKLGVYSACKAEESCKCNGWKNPNPSPTPPRADLQQIIVSLTESCRSCSHALAAHVSHLENVSEEEMNRLLGIVLDVEYLFTCVHKEEDADTKQVYFYLFKLLRKSILQRGKPVVEGSLEKKPPFEKPSIEQGVNNFVQYKFSHLPAKERQTIVELAKMFLNRINYWHLEAPSQRRLRSPNDDISGYKENYTRWLCYCNVPQFCDSLPRYETTQVFGRTLLRSVFTVMRRQLLEQARQEKDKLPLEKRTLILTHFPKFLSMLEEEVYSQNSPIWDQDFLSASSRTSQLGIQTVINPPPVAGTISYNSTSSSLEQPNAGSSSPACKASSGLEANPGEKRKMTDSHVLEEAKKPRVMGDIPMELINEVMSTITDPAAMLGPETNFLSAHSARDEAARLEERRGVIEFHVVGNSLNQKPNKKILMWLVGLQNVFSHQLPRMPKEYITRLVFDPKHKTLALIKDGRVIGGICFRMFPSQGFTEIVFCAVTSNEQVKGYGTHLMNHLKEYHIKHDILNFLTYADEYAIGYFKKQGFSKEIKIPKTKYVGYIKDYEGATLMGCELNPRIPYTEFSVIIKKQKEIIKKLIERKQAQIRKVYPGLSCFKDGVRQIPI
B2: GFP-tagged GCN5 truncation 456-837 a.a. (domain or fragment, UniProt Q92830 456-837)
chain: MELVNEVMLTITDPAAMLGPETSLLSANAARDETARLEERRGIIEFHVIGNSLTPKANRRVLLWLVGLQNVFSHQLPRMPKEYIARLVFDPKHKTLALIKDGRVIGGICFRMFPTQGFTEIVFCAVTSNEQVKGYGTHLMNHLKEYHIKHNILYFLTYADEYAIGYFKKQGFSKDIKVPKSRYLGYIKDYEGATLMECELNPRIPYTELSHIIKKQKEIIKKLIERKQAQIRKVYPGLSCFKEGVRQIPVESVPGIRETGWKPLGKEKGKELKDPDQLYTTLKNLLAQIKSHPSAWPFMEPVKKSEAPDYYEVIRFPIDLKTMTERLRSRYYVTRKLFVADLQRVIANCREYNPPDSEYCRCASALEKFFYFKLKEGGLIDK
B3: GFP-tagged PCAF truncation 1-475 a.a. (domain or fragment, UniProt Q92831 1-475)
chain: MSEAGGAGPGGCGAGAGAGAGPGALPPQPAALPPAPPQGSPCAAAAGGSGACGPATAVAAAGTAEGPGGGGSARIAVKKAQLRSAPRAKKLEKLGVYSACKAEESCKCNGWKNPNPSPTPPRADLQQIIVSLTESCRSCSHALAAHVSHLENVSEEEMNRLLGIVLDVEYLFTCVHKEEDADTKQVYFYLFKLLRKSILQRGKPVVEGSLEKKPPFEKPSIEQGVNNFVQYKFSHLPAKERQTIVELAKMFLNRINYWHLEAPSQRRLRSPNDDISGYKENYTRWLCYCNVPQFCDSLPRYETTQVFGRTLLRSVFTVMRRQLLEQARQEKDKLPLEKRTLILTHFPKFLSMLEEEVYSQNSPIWDQDFLSASSRTSQLGIQTVINPPPVAGTISYNSTSSSLEQPNAGSSSPACKASSGLEANPGEKRKMTDSHVLEEAKKPRVMGDIPMELINEVMSTITDPAAMLGPETNFL
B4: GFP-tagged PCAF truncation 475-832 a.a. (domain or fragment, UniProt Q92831 475-832)
chain: LSAHSARDEAARLEERRGVIEFHVVGNSLNQKPNKKILMWLVGLQNVFSHQLPRMPKEYITRLVFDPKHKTLALIKDGRVIGGICFRMFPSQGFTEIVFCAVTSNEQVKGYGTHLMNHLKEYHIKHDILNFLTYADEYAIGYFKKQGFSKEIKIPKTKYVGYIKDYEGATLMGCELNPRIPYTEFSVIIKKQKEIIKKLIERKQAQIRKVYPGLSCFKDGVRQIPIESIPGIRETGWKPSGKEKSKEPRDPDQLYSTLKSILQQVKSHQSAWPFMEPVKRTEAPGYYEVIRFPMDLKTMSERLKNRYYVSKKLFMADLQRVFTNCKEYNPPESEYYKCANILEKFFFSKIKEAGLIDK
B5: GFP-tagged GCN5 truncation 1-700 a.a. (domain or fragment, UniProt Q92830 1-700)
chain: MAEPSQAPTPAPAAQPRPLQSPAPAPTPTPAPSPASAPIPTPTPAPAPAPAAAPAGSTGTGGPGVGSGGAGSGGDPARPGLSQQQRASQRKAQVRGLPRAKKLEKLGVFSACKANETCKCNGWKNPKPPTAPRMDLQQPAANLSELCRSCEHPLADHVSHLENVSEDEINRLLGMVVDVENLFMSVHKEEDTDTKQVYFYLFKLLRKCILQMTRPVVEGSLGSPPFEKPNIEQGVLNFVQYKFSHLAPRERQTMFELSKMFLLCLNYWKLETPAQFRQRSQAEDVATYKVNYTRWLCYCHVPQSCDSLPRYETTHVFGRSLLRSIFTVTRRQLLEKFRVEKDKLVPEKRTLILTHFPKFLSMLEEEIYGANSPIWESGFTMPPSEGTQLVPRPASVSAAVVPSTPIFSPSMGGGSNSSLSLDSAGAEPMPGEKRTLPENLTLEDAKRLRVMGDIPMELVNEVMLTITDPAAMLGPETSLLSANAARDETARLEERRGIIEFHVIGNSLTPKANRRVLLWLVGLQNVFSHQLPRMPKEYIARLVFDPKHKTLALIKDGRVIGGICFRMFPTQGFTEIVFCAVTSNEQVKGYGTHLMNHLKEYHIKHNILYFLTYADEYAIGYFKKQGFSKDIKVPKSRYLGYIKDYEGATLMECELNPRIPYTELSHIIKKQKEIIKKLIERKQAQIRKVYPGLSCFKEGV
B6: XBP-1S, the active isoform of X-box binding protein 1 (protein, UniProt P17861-2 1-376)
chain: MVVVAAAPNPADGTPKVLLLSGQPASAAGAPAGQALPLMVPAQRGASPEAASGGLPQARKRQRLTHLSPEEKALRRKLKNRVAAQTARDRKKARMSELEQQVVDLEEENQKLLLENQLLREKTHGLVVENQELRQRLGMDALVAEEEAEAKGNEVRPVAGSAESAAGAGPVVTPPEHLPMDSGGIDSSDSESDILLGILDNLDPVMFFKCPSPEPASLEELPEVYPEGPSSLPASLSLSVGTSSAKLEAINELIRFDHIYTKPLVLEIPSETESQANVVVKIEEAPLSPSENDHPEFIVSVKEEPVEDDLVPELGISNLLSSSHCPKPSSCLLDAYSDCGYGGSLSPFSDMSSLLGVNHSWEDTFANELFPQLISV
B7: HA-tagged XBP-1S (protein, UniProt P17861-2 1-376)
chain: B6 chain

biological target: T1, XBP-1S, the active isoform of X-box binding protein 1 (human) (UniProt P17861); assay: co-IP; 293T cells co-transfected with expression plasmids; lysates two days after transfection; IP with anti-XBP-1 antibody (Roche IP kit), Western blot (anti-GCN5 or anti-GFP); normal IgG as control
T1 sequence: B6 chain

**Q.** How did the binding turn out when B1 was run?
**A.** binds

**Q.** With B2 as the binder, how does the binding read?
**A.** binds

**Q.** For B3, which binding is on record?
**A.** binds

**Q.** For B4, which binding is on record?
**A.** binds

**Q.** For B5, which binding is on record?
**A.** no binding

biological target: general control nonderepressible 5 (GCN5) (human) (UniProt Q92830); assay: co-IP; 293T cells co-transfected with expression plasmids; lysates; IP with anti-GCN5 antibody, Western blot with anti-XBP-1 or anti-HA; normal IgG as control

**Q.** For B6, which binding is on record?
**A.** binds

**Q.** B7 was tested. Which binding did it give?
**A.** binds
